The structures appear in SMILES notation. The whole screen tested about 48,000 compounds, of which about 550 (1.1%) were called active. Inconclusive results (about 4%) are left out. Rule as the data show it: active = potency below about 15 µM; inconclusive = mostly about 16 µM to 33 µM; inactive = weaker than that. Some of the results follow.
Potency is read from the fitted curve at half-maximal effect.

The target in this assay is Lysosomal acid glucosylceramidase (Homo sapiens) (UniProt P04062). In words: Glucocerebrosidase.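 Also: the screen sought inhibitors.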 Particulars: purified enzyme, resorufin glucoside fluorescence (screen aimed at inhibitors), 20 min. The procedure, abridged: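 Wild-type enzyme at 0.2 nM final in 50mM citric acid/KH2PO4, 10mM sodium taurocholate, 0.01% tween-20, pH 5.9, with resorufin beta-D-glucopyranoside at 30 uM final. Compounds titrated, 20 min at RT, red fluorescence read; AC50 from titration.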
Sequence of UniProt P04062 (P04062 whole entry, looked up): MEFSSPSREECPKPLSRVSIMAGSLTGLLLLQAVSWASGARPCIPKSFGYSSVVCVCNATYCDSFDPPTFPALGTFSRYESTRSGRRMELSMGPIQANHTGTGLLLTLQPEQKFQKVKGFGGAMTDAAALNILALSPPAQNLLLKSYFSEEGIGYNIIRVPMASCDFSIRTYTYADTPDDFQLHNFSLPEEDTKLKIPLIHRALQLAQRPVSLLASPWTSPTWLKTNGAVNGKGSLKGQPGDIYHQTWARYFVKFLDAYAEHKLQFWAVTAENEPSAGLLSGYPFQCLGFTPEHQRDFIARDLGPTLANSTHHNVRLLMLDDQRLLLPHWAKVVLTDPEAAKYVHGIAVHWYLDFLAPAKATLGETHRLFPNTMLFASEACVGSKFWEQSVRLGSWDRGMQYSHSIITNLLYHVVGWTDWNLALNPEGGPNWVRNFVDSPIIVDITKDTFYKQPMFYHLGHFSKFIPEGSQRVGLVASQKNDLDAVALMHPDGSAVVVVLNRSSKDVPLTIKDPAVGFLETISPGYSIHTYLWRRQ
Take `Cc1cccc(NC(=O)CCN2CC(C)OC(C)C2)c1` (stereo not given): the Potency was inactive: > 76.9 µM.

On to `NC(=O)C1CCN(Cc2nnnn2Cc2ccco2)CC1`, for which the Potency is inactive: > 76.9 µM.

Take `C=CCSc1nnc(NC(=O)CSc2nc3ccccc3o2)s1`: the Potency is inactive: > 76.9 µM.

`Cc1ccc(NC(=O)CCC(=O)O)cc1F`: the Potency is inactive: > 76.9 µM.

As to `COCC(=O)N1CCCc2ccccc21`, the Potency is inactive: > 76.9 µM.

For `Cc1ccc(N2CC(C(=O)Nc3ccc(S(=O)(=O)N4CCCC4)cc3)CC2=O)cc1` (stereo not given), the Potency was inactive: > 76.9 µM.

Consider `COC(=O)c1ccccc1COn1c(=O)c(C)[n+]([O-])c2ccccc21`, for which the Potency is inactive: > 76.9 µM.

With `O=C1OC(Nc2ccc3c(c2)OCO3)c2ccccc21` (stereo not given), the Potency was inactive: > 76.9 µM.

`O=C(c1ccc2c(c1)C(=O)N(c1ccc(Cl)cc1)C2=O)N1CCN(c2ccccn2)CC1`: the Potency was inactive: > 76.9 µM.

`O=C(O)c1ccc(COc2cccc(CO)c2)cc1`: the Potency was inactive: > 76.9 µM.

For `CCCNc1nc2c(c(=O)n(C)c(=O)n2C)n1Cc1cccc(C)c1`, the Potency is inactive: > 76.9 µM.

Regarding `O=C(NCc1ccccn1)Nc1ccc(Cl)c(Cl)c1`, the Potency was inactive: > 76.9 µM.

Regarding `CCNC(=O)NC(=O)COC(=O)CNC(=O)COc1ccccc1`, the Potency was inactive: > 76.9 µM.

For the compound `O=C(Nc1nnc(-c2ccco2)s1)C1CC1`, the Potency was inactive: > 76.9 µM.

On to `CN(C)c1cccc2c(S(=O)(=O)Nc3ccccn3)cccc12`, for which the Potency is inactive: > 76.9 µM.

As for `CC(=O)Nc1cccc(NC(=O)CSc2nnc(Cc3cccn3C)n2-c2ccc(C)cc2)c1`, the Potency is inactive: > 76.9 µM.

`CCc1ccccc1NC(=O)CN(C)C(=O)CN1C(=O)NC2(CCCCCC2)C1=O`: the Potency is inactive: > 76.9 µM.

On to `Cc1ccc(NC(=O)N2CCCC2C(=O)NCCC2=CCCCC2)cc1` (stereo not given), for which the Potency was inactive: > 76.9 µM.

As for `O=C(NCC1c2ccccc2CCN1C(=O)CN1CCOCC1)C1CCCCC1` (stereo not given), the Potency was inactive: > 76.9 µM.

As to `Cn1c(=O)c2c(nc(CN3CCN(CCO)CC3)n2Cc2cccc3ccccc23)n(C)c1=O`, the Potency is inactive: > 76.9 µM.

`Cc1cc(=O)[nH]c(SCC(=O)N2CCC(C(N)=O)CC2)n1`: the Potency is inactive: > 76.9 µM.

As to `CCc1ccc(CCC(=O)Nc2sc3c(c2C#N)CCCC3)o1`, the Potency was inactive: > 76.9 µM.

With `COc1ccc2c(C(=O)CN3CC(C)OC(C)C3)c[nH]c2c1` (stereo not given), the Potency is inactive: > 76.9 µM.

On to `CC(NC(=O)c1cccc(N2CCCC2=O)c1)c1ccc2c(c1)OCCO2` (stereo not given), for which the Potency was inactive: > 76.9 µM.

As for `O=C(Nc1ncnc2c1ncn2C1OC(COC(=O)c2ccccc2)C(F)C1O)c1ccccc1` (stereo not given), the Potency was inactive: > 76.9 µM.

Source of the values: PubChem BioAssay AID360 (National Center for Advancing Translational Sciences (NCATS), 2006).
